According to the supplement of paper PMC12230231:
± gives the standard deviation of the averaged measurements. Restriction of a single-cycle SIVsab GFP reporter by TRIM5α v1-loop variants in CRFK cells. Human variants: read share among cells still uninfected after two challenges over input, higher = gained restriction. Rhesus variants: share among infected cells over input, higher = lost restriction. Reporter dose not given per row. No active / inactive call per row; the paper calls a change when both replicates lie above its controls (mean + 2 SD of stop or wild-type variants, or the top frameshift score). Residues outside the varied loop are taken from Swiss-Prot. The paper reads the human single-substitution scores as noise; they and the rhesus combinations repeat poorly (rank correlation 0.3 to 0.4), indel scores repeat only for the top variants, rhesus substitutions well (0.9).

System: SIVsab (simian immunodeficiency virus of sabaeus monkeys), single-cycle GFP reporter, in CRFK cells
Assay: enrichment among infected cells over input (fold); higher = weaker restriction
Conditions: library: human / rhesus combinations
Description: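 Pools of CRFK cells expressing variants of the TRIM5α v1 loop were challenged with the single-cycle reporter, sorted by GFP and sequenced; mean of two replicates.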

**Q.** How did the enrichment turn out when “MASGILLNVKEEVTCPICLELLTEPLSLHCGHSFCQACITANHKKSMLYKEGERSCPVCRISYQPENIQPNRHVANIVEKLREVKLSPEEGQKVDHCARHGEKLLLFCQEDSKVICWLCERSQEHRGHHTFLMEEVAQEYHVKLQTALEMLRQKQQEAEKLEADIREEKASWKIQIDYDKTNVSADFEQLREILDWEESNELQNLEKEEEDILKSLTKSETEMVQQTQYMRELISELEHRLQGSMMDLLQGVDGIIKRIENMTLKKPKTFHKNQRRVFRAPDLKGMLDMFRELTDARRYWVDVTLAPNNISHAVIAEDKRQVSSRNPQIMYGARGTRFQSFVNFNYCTGVLGSQSITSGKHYWEVDVSKKSAWILGVCAGFQSDAMYNIEQNENYQPKYGYWVIGLQEGVKYSVFQDGSSHTPFAPFIVPLSVIICPDRVGVFVDYEACTVSFFNITNHGFLIYKFSQCSFSKPVFPYLNPRKCTVPMTLCSPSS [rhesus TRIM5α, 332-344 = GARGTRFQSFV]” was run?
**A.** 2.82 ± 3.2

**Q.** For “MASGILLNVKEEVTCPICLELLTEPLSLHCGHSFCQACITANHKKSMLYKEGERSCPVCRISYQPENIQPNRHVANIVEKLREVKLSPEEGQKVDHCARHGEKLLLFCQEDSKVICWLCERSQEHRGHHTFLMEEVAQEYHVKLQTALEMLRQKQQEAEKLEADIREEKASWKIQIDYDKTNVSADFEQLREILDWEESNELQNLEKEEEDILKSLTKSETEMVQQTQYMRELISELEHRLQGSMMDLLQGVDGIIKRIENMTLKKPKTFHKNQRRVFRAPDLKGMLDMFRELTDARRYWVDVTLAPNNISHAVIAEDKRQVSSRNPQIMYGAPGTRYTFQSLVNFNYCTGVLGSQSITSGKHYWEVDVSKKSAWILGVCAGFQSDAMYNIEQNENYQPKYGYWVIGLQEGVKYSVFQDGSSHTPFAPFIVPLSVIICPDRVGVFVDYEACTVSFFNITNHGFLIYKFSQCSFSKPVFPYLNPRKCTVPMTLCSPSS [rhesus TRIM5α, 332-344 = GAPGTRYTFQSLV]”, which enrichment is on record?
**A.** 1.85 ± 0.61

**Q.** How did the enrichment turn out when “MASGILLNVKEEVTCPICLELLTEPLSLHCGHSFCQACITANHKKSMLYKEGERSCPVCRISYQPENIQPNRHVANIVEKLREVKLSPEEGQKVDHCARHGEKLLLFCQEDSKVICWLCERSQEHRGHHTFLMEEVAQEYHVKLQTALEMLRQKQQEAEKLEADIREEKASWKIQIDYDKTNVSADFEQLREILDWEESNELQNLEKEEEDILKSLTKSETEMVQQTQYMRELISELEHRLQGSMMDLLQGVDGIIKRIENMTLKKPKTFHKNQRRVFRAPDLKGMLDMFRELTDARRYWVDVTLAPNNISHAVIAEDKRQVSSRNPQIMYQARGTRFTFQTLVNFNYCTGVLGSQSITSGKHYWEVDVSKKSAWILGVCAGFQSDAMYNIEQNENYQPKYGYWVIGLQEGVKYSVFQDGSSHTPFAPFIVPLSVIICPDRVGVFVDYEACTVSFFNITNHGFLIYKFSQCSFSKPVFPYLNPRKCTVPMTLCSPSS [rhesus TRIM5α, 332-344 = QARGTRFTFQTLV]” was run?
**A.** 1.11 ± 0.66

**Q.** For “MASGILLNVKEEVTCPICLELLTEPLSLHCGHSFCQACITANHKKSMLYKEGERSCPVCRISYQPENIQPNRHVANIVEKLREVKLSPEEGQKVDHCARHGEKLLLFCQEDSKVICWLCERSQEHRGHHTFLMEEVAQEYHVKLQTALEMLRQKQQEAEKLEADIREEKASWKIQIDYDKTNVSADFEQLREILDWEESNELQNLEKEEEDILKSLTKSETEMVQQTQYMRELISELEHRLQGSMMDLLQGVDGIIKRIENMTLKKPKTFHKNQRRVFRAPDLKGMLDMFRELTDARRYWVDVTLAPNNISHAVIAEDKRQVSSRNPQIMYGARGTLYTFPTLTNFNYCTGVLGSQSITSGKHYWEVDVSKKSAWILGVCAGFQSDAMYNIEQNENYQPKYGYWVIGLQEGVKYSVFQDGSSHTPFAPFIVPLSVIICPDRVGVFVDYEACTVSFFNITNHGFLIYKFSQCSFSKPVFPYLNPRKCTVPMTLCSPSS [rhesus TRIM5α, 332-344 = GARGTLYTFPTLT]”, which enrichment is on record?
**A.** 0.336 ± 0.0039

**Q.** “MASGILLNVKEEVTCPICLELLTEPLSLHCGHSFCQACITANHKKSMLYKEGERSCPVCRISYQPENIQPNRHVANIVEKLREVKLSPEEGQKVDHCARHGEKLLLFCQEDSKVICWLCERSQEHRGHHTFLMEEVAQEYHVKLQTALEMLRQKQQEAEKLEADIREEKASWKIQIDYDKTNVSADFEQLREILDWEESNELQNLEKEEEDILKSLTKSETEMVQQTQYMRELISELEHRLQGSMMDLLQGVDGIIKRIENMTLKKPKTFHKNQRRVFRAPDLKGMLDMFRELTDARRYWVDVTLAPNNISHAVIAEDKRQVSSRNPQIMYGAPGTRFTFQTFTNFNYCTGVLGSQSITSGKHYWEVDVSKKSAWILGVCAGFQSDAMYNIEQNENYQPKYGYWVIGLQEGVKYSVFQDGSSHTPFAPFIVPLSVIICPDRVGVFVDYEACTVSFFNITNHGFLIYKFSQCSFSKPVFPYLNPRKCTVPMTLCSPSS [rhesus TRIM5α, 332-344 = GAPGTRFTFQTFT]” was tested. Which enrichment did it give?
**A.** 1.18 ± 0.063

**Q.** For “MASGILLNVKEEVTCPICLELLTEPLSLHCGHSFCQACITANHKKSMLYKEGERSCPVCRISYQPENIQPNRHVANIVEKLREVKLSPEEGQKVDHCARHGEKLLLFCQEDSKVICWLCERSQEHRGHHTFLMEEVAQEYHVKLQTALEMLRQKQQEAEKLEADIREEKASWKIQIDYDKTNVSADFEQLREILDWEESNELQNLEKEEEDILKSLTKSETEMVQQTQYMRELISELEHRLQGSMMDLLQGVDGIIKRIENMTLKKPKTFHKNQRRVFRAPDLKGMLDMFRELTDARRYWVDVTLAPNNISHAVIAEDKRQVSSRNPQIMYQAPGTRFTFQTFVNFNYCTGVLGSQSITSGKHYWEVDVSKKSAWILGVCAGFQSDAMYNIEQNENYQPKYGYWVIGLQEGVKYSVFQDGSSHTPFAPFIVPLSVIICPDRVGVFVDYEACTVSFFNITNHGFLIYKFSQCSFSKPVFPYLNPRKCTVPMTLCSPSS [rhesus TRIM5α, 332-344 = QAPGTRFTFQTFV]”, which enrichment is on record?
**A.** 1.43 ± 0.44

**Q.** With “MASGILLNVKEEVTCPICLELLTEPLSLHCGHSFCQACITANHKKSMLYKEGERSCPVCRISYQPENIQPNRHVANIVEKLREVKLSPEEGQKVDHCARHGEKLLLFCQEDSKVICWLCERSQEHRGHHTFLMEEVAQEYHVKLQTALEMLRQKQQEAEKLEADIREEKASWKIQIDYDKTNVSADFEQLREILDWEESNELQNLEKEEEDILKSLTKSETEMVQQTQYMRELISELEHRLQGSMMDLLQGVDGIIKRIENMTLKKPKTFHKNQRRVFRAPDLKGMLDMFRELTDARRYWVDVTLAPNNISHAVIAEDKRQVSSRNPQIMYGAPGTRYTFPSFTNFNYCTGVLGSQSITSGKHYWEVDVSKKSAWILGVCAGFQSDAMYNIEQNENYQPKYGYWVIGLQEGVKYSVFQDGSSHTPFAPFIVPLSVIICPDRVGVFVDYEACTVSFFNITNHGFLIYKFSQCSFSKPVFPYLNPRKCTVPMTLCSPSS [rhesus TRIM5α, 332-344 = GAPGTRYTFPSFT]” as the sequence, how does the enrichment read?
**A.** 1.56 ± 0.55

**Q.** Which enrichment does the source give for “MASGILLNVKEEVTCPICLELLTEPLSLHCGHSFCQACITANHKKSMLYKEGERSCPVCRISYQPENIQPNRHVANIVEKLREVKLSPEEGQKVDHCARHGEKLLLFCQEDSKVICWLCERSQEHRGHHTFLMEEVAQEYHVKLQTALEMLRQKQQEAEKLEADIREEKASWKIQIDYDKTNVSADFEQLREILDWEESNELQNLEKEEEDILKSLTKSETEMVQQTQYMRELISELEHRLQGSMMDLLQGVDGIIKRIENMTLKKPKTFHKNQRRVFRAPDLKGMLDMFRELTDARRYWVDVTLAPNNISHAVIAEDKRQVSSRNPQIMYQAPGTLYTFQTFVNFNYCTGVLGSQSITSGKHYWEVDVSKKSAWILGVCAGFQSDAMYNIEQNENYQPKYGYWVIGLQEGVKYSVFQDGSSHTPFAPFIVPLSVIICPDRVGVFVDYEACTVSFFNITNHGFLIYKFSQCSFSKPVFPYLNPRKCTVPMTLCSPSS [rhesus TRIM5α, 332-344 = QAPGTLYTFQTFV]” here?
**A.** 2.23 ± 2

**Q.** With “MASGILLNVKEEVTCPICLELLTEPLSLHCGHSFCQACITANHKKSMLYKEGERSCPVCRISYQPENIQPNRHVANIVEKLREVKLSPEEGQKVDHCARHGEKLLLFCQEDSKVICWLCERSQEHRGHHTFLMEEVAQEYHVKLQTALEMLRQKQQEAEKLEADIREEKASWKIQIDYDKTNVSADFEQLREILDWEESNELQNLEKEEEDILKSLTKSETEMVQQTQYMRELISELEHRLQGSMMDLLQGVDGIIKRIENMTLKKPKTFHKNQRRVFRAPDLKGMLDMFRELTDARRYWVDVTLAPNNISHAVIAEDKRQVSSRNPQIMYGARGTLFTFQSFVNFNYCTGVLGSQSITSGKHYWEVDVSKKSAWILGVCAGFQSDAMYNIEQNENYQPKYGYWVIGLQEGVKYSVFQDGSSHTPFAPFIVPLSVIICPDRVGVFVDYEACTVSFFNITNHGFLIYKFSQCSFSKPVFPYLNPRKCTVPMTLCSPSS [rhesus TRIM5α, 332-344 = GARGTLFTFQSFV]” as the sequence, how does the enrichment read?
**A.** 1.57 ± 0.29

**Q.** For “MASGILLNVKEEVTCPICLELLTEPLSLHCGHSFCQACITANHKKSMLYKEGERSCPVCRISYQPENIQPNRHVANIVEKLREVKLSPEEGQKVDHCARHGEKLLLFCQEDSKVICWLCERSQEHRGHHTFLMEEVAQEYHVKLQTALEMLRQKQQEAEKLEADIREEKASWKIQIDYDKTNVSADFEQLREILDWEESNELQNLEKEEEDILKSLTKSETEMVQQTQYMRELISELEHRLQGSMMDLLQGVDGIIKRIENMTLKKPKTFHKNQRRVFRAPDLKGMLDMFRELTDARRYWVDVTLAPNNISHAVIAEDKRQVSSRNPQIMYQARGTLYPSLTNFNYCTGVLGSQSITSGKHYWEVDVSKKSAWILGVCAGFQSDAMYNIEQNENYQPKYGYWVIGLQEGVKYSVFQDGSSHTPFAPFIVPLSVIICPDRVGVFVDYEACTVSFFNITNHGFLIYKFSQCSFSKPVFPYLNPRKCTVPMTLCSPSS [rhesus TRIM5α, 332-344 = QARGTLYPSLT]”, which enrichment is on record?
**A.** 2.61 ± 3.7

**Q.** How did the enrichment turn out when “MASGILLNVKEEVTCPICLELLTEPLSLHCGHSFCQACITANHKKSMLYKEGERSCPVCRISYQPENIQPNRHVANIVEKLREVKLSPEEGQKVDHCARHGEKLLLFCQEDSKVICWLCERSQEHRGHHTFLMEEVAQEYHVKLQTALEMLRQKQQEAEKLEADIREEKASWKIQIDYDKTNVSADFEQLREILDWEESNELQNLEKEEEDILKSLTKSETEMVQQTQYMRELISELEHRLQGSMMDLLQGVDGIIKRIENMTLKKPKTFHKNQRRVFRAPDLKGMLDMFRELTDARRYWVDVTLAPNNISHAVIAEDKRQVSSRNPQIMYQARGTRFTFPSLVNFNYCTGVLGSQSITSGKHYWEVDVSKKSAWILGVCAGFQSDAMYNIEQNENYQPKYGYWVIGLQEGVKYSVFQDGSSHTPFAPFIVPLSVIICPDRVGVFVDYEACTVSFFNITNHGFLIYKFSQCSFSKPVFPYLNPRKCTVPMTLCSPSS [rhesus TRIM5α, 332-344 = QARGTRFTFPSLV]” was run?
**A.** 0.779 ± 0.32

**Q.** For “MASGILLNVKEEVTCPICLELLTEPLSLHCGHSFCQACITANHKKSMLYKEGERSCPVCRISYQPENIQPNRHVANIVEKLREVKLSPEEGQKVDHCARHGEKLLLFCQEDSKVICWLCERSQEHRGHHTFLMEEVAQEYHVKLQTALEMLRQKQQEAEKLEADIREEKASWKIQIDYDKTNVSADFEQLREILDWEESNELQNLEKEEEDILKSLTKSETEMVQQTQYMRELISELEHRLQGSMMDLLQGVDGIIKRIENMTLKKPKTFHKNQRRVFRAPDLKGMLDMFRELTDARRYWVDVTLAPNNISHAVIAEDKRQVSSRNPQIMYGAPGTLFPSLTNFNYCTGVLGSQSITSGKHYWEVDVSKKSAWILGVCAGFQSDAMYNIEQNENYQPKYGYWVIGLQEGVKYSVFQDGSSHTPFAPFIVPLSVIICPDRVGVFVDYEACTVSFFNITNHGFLIYKFSQCSFSKPVFPYLNPRKCTVPMTLCSPSS [rhesus TRIM5α, 332-344 = GAPGTLFPSLT]”, which enrichment is on record?
**A.** 0.865 ± 0.058
